Experimental data published in the supplement of paper PMC9334596.
Where “and” joins values, the source holds several entries; their conditions need not be identical. Equal entries are not always repeated. Over roughly 5,300 compounds, “PER2::LUC luminescence relative to vehicle control” has its median near 0.96; the highest 2% begin near 1.3. This is one part of the list.

System: mPer2Luc MEF
Assay: PER2::LUC luminescence relative to vehicle control (fold of vehicle); higher = higher PER2::LUC reporter signal
Settings: 10 µM
Method in brief: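 Mouse embryonic fibroblasts carrying the mPer2Luc reporter were seeded at ~3000 cells per well in 384-well plates, 48 h before compounds from commercial libraries were added at 10 μM. Cells were grown in DMEM with 10% FBS at 37 °C and 5% CO2. Luminescence was read with the ONE-Glo luciferase assay system 24 h and 30 h after treatment, followed by an alamarBlue viability assay. The value is PER2::LUC luminescence as fold of vehicle control.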

SMILES	PER2::LUC luminescence (time after treatment 24 h)	PER2::LUC luminescence (time after treatment 30 h)
CN1[C@H]2C[C@H](OC(=O)[C@H](CO)c3ccccc3)C[C@@H]1[C@@H](O)C2	1.05 and 0.935	1 and 0.907
O=C(Oc1ccc([N+](=O)[O-])cc1)N1CCN(Cc2cccc(Oc3ccccc3)c2)CC1	1.08	1.07
NCCCC[C@H](NC(=O)[C@H](Cc1ccccc1)NC(=O)[C@@H](CCCN=C(N)N)NC(=O)[C@@H](N)Cc1ccc(O)cc1)C(N)=O	1.05	0.925
COc1ccc(C(CN(C)C)C2(O)CCCCC2)cc1 (stereo unspecified)	0.911 and 0.541	1 and 0.808
COc1cc2c(cc1OC)-c1c(oc3c4c(ccc3c1=O)OC(C(C)C)C4)CO2 (stereo unspecified)	0.967	0.977
CCN(CCCl)Cc1ccccc1Br	1	0.815
CC(=O)[C@H]1CC[C@H]2[C@@H]3CC[C@H]4C[C@H](O)CC[C@]4(C)[C@H]3C(=O)C[C@]12C	0.966	0.917
CC(=O)c1c(O)c(C)c(O)c(Cc2c(O)c3c(c(C(=O)/C=C/c4ccccc4)c2O)OC(C)(C)C=C3)c1O	0.738	0.764
CCOc1cc(C=O)ccc1O	0.938	0.851
COc1ccccc1N1CCNCC1	1.1	1.2
C=C1[C@@H](C)[C@H]2[C@H](Cc3ccccc3)NC(=O)[C@]23[C@H](OC(C)=O)/C=C/[C@@](C)(O)C(=O)[C@@H](C)C/C=C/[C@H]3[C@@H]1O	1.05	0.997
C=C1C[C@@H]2[C@H](CC[C@]3(C)C(=O)CC[C@@H]23)[C@@]2(C)C=CC(=O)C=C12	0.932	1.01
O=C(O)c1cc[c]([Hg][Cl])cc1	1.2	1.14
CC(N)Cc1c[nH]c2ccc(O)cc12 (racemic)	1.05	1.09
FC(F)(F)c1cccc(N2CCNCC2)c1	0.975 and 0.794	0.781 and 0.743
CC1=NN=C(c2ccc(N)cc2)c2cc3c(cc2C1)OCO3	1.05	0.803
C[C@]12C/C(=C/O)C(=O)C[C@@H]1CC[C@@H]1[C@@H]2CC[C@@]2(C)[C@H]1CC[C@]2(C)O	1.01	0.774
C[C@H]1CNCCc2ccc(Cl)cc21	0.947 and 0.839	0.969 and 0.871
CSCCC(NC(=O)C(Cc1ccccc1)NC(=O)CNC(=O)CNC(=O)C(N)Cc1ccc(O)cc1)C(=O)O (stereo unspecified)	0.995	0.903
CC1CC(Cl)CCC1C(=O)OC(C)(C)C (stereo unspecified)	0.953	0.925
CCOP(=S)(OCC)Oc1ccc2c(C)c(Cl)c(=O)oc2c1	1.03	1.18 and 1.16
Cn1c2c(c3ccccc31)CCNCC2	1.1	0.994

SMILES	PER2::LUC luminescence (time after treatment 24 h)	PER2::LUC luminescence (time after treatment 30 h)
O=C1C=CC(=O)C=C1	0.854	0.939
COC[C@@H](NC(C)=O)C(=O)NCc1ccccc1	1.17	1.19
COc1ccc2c(c1OC)C(=O)OC2C1c2cc3c(cc2CCN1C)OCO3 (single isomer, unassigned; (+))	1.06	0.794
COC(=O)NC(=S)Nc1ccccc1NC(=S)NC(=O)OC	0.99	0.937
C[C@](N)(CCP(=O)(O)O)C(=O)O	0.97	0.986
O=C(O)[C@@H]1CCN1	0.932	0.86
O=C(O)Cc1cnc[nH]1	0.944 and 1.14	0.715 and 1.08
CC(C)(C)NCC(O)COc1cccc2[nH]c(C#N)cc12 (single isomer, unassigned; (-))	0.962	0.862
CNC(=O)Oc1ccccc1OC(C)C	0.891	1.02
C[C@]12COC(=O)C[C@@H]1CC[C@@H]1[C@@H]2CC[C@@]2(C)[C@H]1CC[C@]2(C)O	1.03	1.01
CCCn1c(C)c(C(=O)c2cccc3ccccc23)c2ccccc21	0.957	0.853
O=C(C[S+]([O-])C(c1ccccc1)c1ccccc1)NO (stereo unspecified)	0.977	0.998
CCC(C)C(NC(=O)C1CCCN1C(=O)C(CCC(=O)O)NC(=O)C(NC(=O)C(Cc1ccccc1)NC(=O)C1CCCN1C(=O)C(N)Cc1ccc(O)cc1)C(C)C)C(=O)O (stereo unspecified)	1.05	0.972
O=P1(N(CCCl)CCCl)NCCCO1 (stereo unspecified)	0.993 and 0.979	0.957 and 0.918
c1ccc2c(c1)sc1ccccc12	1.05	0.946
CO[C@@H]1C=C2CCN(C)[C@@H]2C2c3cc4c(cc3C(=O)OC21)OCO4 (stereo partly specified)	1.05	1.08
CC(=O)OCC1=C(C(=O)[O-])N2C(=O)[C@@H](NC(=O)CCC[C@@H](N)C(=O)[O-])[C@H]2SC1.[Zn+2]	1.12	1.05
CN1C(=O)CCS(=O)(=O)C1c1ccc(Cl)cc1 (stereo unspecified)	0.985	0.976
CCCCCCC(=O)CCCCCC/C=C/C[C@@H](O)[C@H](O)[C@@](N)(CO)C(=O)O	1.26	1.35
COP(=S)(OC)Oc1ccc(Sc2ccc(OP(=S)(OC)OC)cc2)cc1	1.1	0.974
COc1cc2c(cc1OC)C13CC[N+]4([O-])CC5=CCOC6CC(=O)N2C1C6C5CC34 (stereo unspecified)	1.02	0.997
